# In the RNAGym collection of RNA variant scans (doi:10.7554/elife.90254):
# Read counts are not given, so values of variants with three or more changes are uncertain.
# B1: LINE1-mini (parent)
# chain: GGCAGAGCUCAACACAGCGUGGCAAAGUGGCUGUGGCUAGACUGCC
# Variants of: B1
# Experiment: self-cleavage, relative activity (ratio to wild type); higher = more cleavage; in vitro, sequencing; the parent is a self-cleaving ribozyme
row,Variant,self-cleavage
1,GGCACAGCCCAACACAGCGUGGGAAAGUGGCUGUAGCUUUACUGCC,0.02
2,GGCACAGCCCAACACAACGUGGCAAAGUGGCUGUGGCUAGACUGCC,0.03
3,GGCAUGGCUCAAGACAGCGUGGCAAAGUGGCCGCGGCUAGACUGCC,0.21
4,GGCAUUGCUCAACACAGCGUGGCAAAGUGGCUGUUGCUAGACUGCC,0.11
5,GGCAUGGGUCAACAAAGCGCGGCAAAGUUGCUGCGGCUAGACUGCC,0.04
6,GGCAUAGCUCCACACAGCGUGGCAAAGUGCCUGUGUCUAGACUGCC,0.02
7,GGCACAGCUCAACACAGCGUGGCAAAGUGGCGGGUGCUAGACUGCC,0.02
8,GGCACAGCUCAACACAGCGUGGCAAAGAGGCUAUGGCUAGACUGCC,0.05
9,GGCACAGCACAACACAGCGUUGCAAAGUGGCUUUUGCUAGACUGCC,0.03
10,GGCACAGCUCAACACAGCGGCGCAAAGUGGCUGUGGCUAGACUGCC,0.03
11,GGCAUGGGUCAACACAGCGUGCCAAAGUGGCUGUGGCUAGACUGCC,0.02
12,GGCAUAGCUCCAAACAGCGUGGCAAAGUGGCUGUGGCUAGACCGCC,0.05
13,GGCAUCGCUCAACACCGCGUGGAAAAGUUGCUGUGGCUAGACUGCC,0.04
14,GGCAUGGCUCAACACAGCGUGGCAAAGUGGCUGUAGCUAGACUGUC,0.07
15,GGCAUCGCUCAACACAGGGUGGCAAACUGGCUGUUGCUAGACUGCC,0.04
16,GGCAUUGCUCGCCACAGCGUGGCAAAGUGGGUUUGGCUAGACUUAC,0
17,GGCACAGCUCAACACAGCGUGGCAAAGUGGCUGCGGCUAUACUGCC,0.29
18,GGCACAGCGCAACACAGCGUGGCAAAGUUGCUGUGGCUAGACUGCG,0.08
19,GGCACAGCUCAACACAGCGUGGCAAAGGGGCUGUGGCUAGACUGAC,0.01

row,Variant,self-cleavage
1,GGCAUGGCUCAACACAGCGUCGCAAAGUGGCUGGGGCAAGACUGCC,0.04
2,GGCACAGCCCAACAGAGCGCGGCAAAGAGGCUGUGGCUAGACUGCC,0.02
3,GGCACAGCUCAACACAGCGUGGCAAAGUGGCCUUGGCUAGACUGCC,0.01
4,GGCACAGCGCAACACAGCGUGUCAAAGUGGCUGUGGCUAGAUUGCC,0.01
5,GGCACAGCUCAACACAGCGUGGCAAAGCGGCUGUGCUUAGACUGCC,0.01
6,GGCACAGCACAACACAGCGUGGCAAAGUCACUAUGGCUAGAGUGCC,0.2
7,GGCAUUGCUCAACACAGCGUGGCAAAGUGGAUGUGGCUAGACUGCC,0.1
8,GGCAUUGCUCAACAAAACGUGGCAAAGUGGCUGUGGCUAUACUGCC,0.02
9,GGCAUUGCUCAACACAGCGUCGCAAAGUGGCUGUGGCUGGACUGUC,0.08
10,GGCACAGCUCAACACAGCGUGGCAAAGUGGCGUUGGCUAGAAUGCC,0.03
11,GGCACAGCUCAACACAGCGUGGCAAAGUGGCUGUGGCUAGACAGCG,0.04
12,GGCAUCGCUCAACACCUCGUGGCAAAGUGGCUGUGGCUAGACUGCC,0.09
13,GGCAUAGCUCCACACAGCGUGGCCAAGUGGCCGUGGCUAGACUGCA,0.04
14,GGCAUAGCUCCGCACAGCGUGGCAAAGUGGCUGUGGCUAGACUUCC,0
15,GGCACAGCGCAACACAGCUUGGCAAUGUGGCUGUGGCUAGACUGCC,0.05
16,GGCACAGCGCAACACAGCGUGGCAAAAUGGCUGUGGCUAGACUGCC,0.03
17,GGCACAGCUCAACACAGCGUGGCAAAGGGGCGGUGGCUAGACUGCU,0.03
18,GGCACAGCGCAACACAGCGUGUCAAAGUGGCUGUGGCUAGACUGCC,0.05
19,GGCACAGCUCAACACAGCGAGGCAAAGUGGCUAUGGCUGGACUGCC,0.03

row,Variant,self-cleavage
1,GGCACAGCGCAACACAGCGUGGCAAAGUCGCUCUGGCUGGACUGCC,0.02
2,GGCAUCGCUCAAGACAGCAUGGCAAAGUGGCUGUGGCUAGACUGCC,0.13
3,GGCACAGCUCAACACAGCGCGGCAAAAUGGCUGUGGCUAGACUUCC,0.03
4,GGCACAGCGCAACGCAGCGUGACAAAGUGUCUGUGGCUAGACUGCC,0.02
5,GGCAUUGCUCAACACAGCCAGGCAAUGUGGCUGUGGCUAGACUGCC,0.11
6,GGCACAGCACUAAACAGCGUGGCAAAGUGACUGUGGCUAGACUGCG,0.02
7,GGCACAGCACAACACAGAGUGGCAAAGUGGCUGUGGCUAGACUGCC,0.03
8,GGCAUGGCUCAACACAGCGUUGCAAAGUGGCUGUGGCUAGACUGCC,0.05
9,GGCACAGCGCAACACAGCGCGGCAAAGUGGCUGUGGCUAGACUGCA,0.03
10,GGCAUGGCCCACCACAGCGUAGCAACGUGGAUGUGGCUAGACUGCC,0.01
11,GGCACAGCGCAUCACAGCGAGGCAAAGUGGCUGUGGCUAGACUGCC,0.01
12,GGCACAGCACGACACAGCGUGGCAAAGUGGCAUUGGCUAGACGGCC,0.02
13,GGCACAGCUCAACACAGCGUGGCAAAGUGGCAGGGGCUAGAUUGCC,0.04
14,GGCAUAGCUCCUCACAGCUUGGCAAAGUGGCUGUGGCUAGACUGCG,0.02
15,GGCAUCGCUCAACACAGCCUGGCAAAGUGGCUGUGGCUAGAAUGCC,0.09
16,GGCAUAGCUCCACCCGGCGUGGCAAAGUGGCUGUGGCUAGACUGCA,0.02
17,GGCAUGGCUAAACACAGCGUGGCAAAGUGGCUGUGGCUAGACGGCC,0.02
18,GGCAUCGCUCAACCCGGCGUGGCAAAGUGCGUGUGUCUAGAUUGCC,0.02
